From EP0068408A1 (priority 1981, dated 1983)

Assays:
Assay type in all cases: cell-based
Vesicular stomatitis = assay: microbe, parasite or virus in culture; conditions: read-out: Minimum Inhibitory Concentration
Influenza A2 = assay: microbe, parasite or virus in culture; conditions: read-out: Minimum Inhibitory Concentration
Respiratory virus = assay: Antiviral activity in cultured cells (inhibition of cytopathic effect); conditions: virus I = Respiratory virus; complete inhibition of cytopathic effect by 100TCID50; read-out: Minimum Inhibitory Concentration

Row | Structure (SMILES) | MIC (Vesicular stomatitis) [µg/mL] | MIC (Influenza A2) [µg/mL] | MIC (Respiratory virus) [µg/mL]
1 | NS(=O)(=O)c1cc(C(=O)O)c(Br)cc1Cl [Compound 18] | 300 (≈ 954 µM) | 30 (≈ 95.4 µM) | 
2 | O=C(O)c1ccc(Cl)c(S(=O)(=O)N2CCCC2)c1 [Compound 12] | 300 (≈ 1040 µM) | 300 (≈ 1040 µM) | 
3 | CONS(=O)(=O)c1cc(C(=O)O)ccc1Cl [Compound 4] | 300 (≈ 1130 µM) | 300 (≈ 1130 µM) | 
4 | N=C(N)NS(=O)(=O)c1cc(C(=O)O)c(Cl)cc1Cl [Compound 21] | 300 (≈ 961 µM) | 300 (≈ 961 µM) | 
5 | NS(=O)(=O)c1cc(Br)cc(C(=O)O)c1 [Compound 26] | 300 (≈ 1070 µM) | 300 (≈ 1070 µM) | 
6 | NS(=O)(=O)c1cc(C(=O)O)cc([N+](=O)[O-])c1Cl [Compound 15] | 300 (≈ 1070 µM) | 300 (≈ 1070 µM) | 
7 | NC(=O)NNS(=O)(=O)c1cc(C(=O)O)c(Cl)cc1Cl [Compound 23] | 300 (≈ 914 µM) | 300 (≈ 914 µM) | 
8 | Nc1cc(Cl)c(S(N)(=O)=O)cc1C(=O)O [Compound 14] | 300 (≈ 1200 µM) | 300 (≈ 1200 µM) | 
9 | NC(=O)C(=O)NNS(=O)(=O)c1cc(C(=O)O)c(Cl)cc1Cl [Compound 24] | 300 (≈ 842 µM) | 300 (≈ 842 µM) | 
10 | N=C(N)NNS(=O)(=O)c1cc(C(=O)O)c(Cl)cc1Cl [Compound 22] | 300 (≈ 917 µM) | 100 (≈ 306 µM) | 
11 | NS(=O)(=O)c1cc(C(=O)O)c(F)cc1Cl [Compound 16] | 100 (≈ 394 µM) | 300 (≈ 1180 µM) | 
12 | NS(=O)(=O)c1cc(Cl)cc(C(=O)O)c1 [Compound 25] | 300 (≈ 1270 µM) | 300 (≈ 1270 µM) | 100 (≈ 424 µM)
13 | NS(=O)(=O)c1cc(C(=O)O)cc(Cl)c1Cl [Compound 20] | 30 (≈ 111 µM) | 10 (≈ 37 µM) | 
14 | NS(=O)(=O)c1cc(C(=O)O)c(Cl)cc1F [Compound 17] | 300 (≈ 1180 µM) | 300 (≈ 1180 µM) | 
15 | NNS(=O)(=O)c1cc(C(=O)O)ccc1Cl [Compound 7] | 100 (≈ 399 µM) | 100 (≈ 399 µM) | 
16 | CN1CCN(S(=O)(=O)c2cc(C(=O)O)ccc2Cl)CC1 [Compound 13] | 300 (≈ 941 µM) | 300 (≈ 941 µM) | 
17 | NS(=O)(=O)c1ccc(Cl)cc1C(=O)O [Compound 27] | 300 (≈ 1270 µM) | 30 (≈ 127 µM) | 
18 | O=C(O)c1ccc(Cl)c(S(=O)(=O)NCCO)c1 [Compound 5] | 300 (≈ 1070 µM) | 100 (≈ 358 µM) | 
19 | O=C(O)c1ccc(Cl)c(S(=O)(=O)NNc2ccc(Cl)nn2)c1 [Compound 10] | 300 (≈ 826 µM) | 300 (≈ 826 µM) | 
20 | CN(CCO)S(=O)(=O)c1cc(C(=O)O)ccc1Cl [Compound 6] | 300 (≈ 1020 µM) | 300 (≈ 1020 µM) | 

≈ marks a conversion by molar mass, not a printed value.
